Reference: patent US20260131000A1

Experiments:
[1] = molecular target: L1CAM endogenously expressed on MCF-7 and MDA-MB-231 cells (UniProt P32004); test: flow cytometry, MDA-MB-231 cells
[2] = molecular target: L1CAM endogenously expressed on MCF-7 and MDA-MB-231 cells (UniProt P32004); test: flow cytometry, MCF-7 cells

B1: 15G02 (antibody, V domains shown)
VH: EVQLVESGGGLVQPGGSLRLSCGVSGFTFSHYWMNWVRQAPGKGLEWVANIMQDGSEKYYVDSVKGRFTISRDNAKNSLYLQMNSLRVEDTAVYYCARDRGVTTLFDYWGQGILVTVSS
VL: [sequence of about 100 residues not given]TFGQGTKVEIK
EC50 [1]: 0.98 nM
EC50 [2]: 1 nM
